According to the supplement of paper PMC10126150:
Sequences with one replicate were seen in a single cluster, so their values are uncertain.

System: ATP
Assay: switch fluorescence ratio, 500 uM ATP over buffer (Cy3 cluster intensity, sum of 5 cycles each) (fold (ratio)); higher = stronger signal-on switching upon ATP binding; sequences stand for … in TCGTCGGCAGCGTCAGATGTGTATAAGAGACAGTTTTTTTTTTTTTTTTTTTTTTTTT…TC
Details: aptamer strand: ATP DNA aptamer (quencher-CACCTGGGGGAGTATTGCGGAGGAAGG + anchor), 100 nM annealed; ATP concentration: 500 uM; one replicate
Procedure, shortened: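 Exposure to 500 uM ATP lasted 15 min at 22 °C before imaging, and a selection-buffer image was taken beforehand, for Cy3-labelled switching-strand clusters on a modified Illumina MiSeq flow-cell annealed to 100 nM quencher-labelled ATP aptamer. Five buffer/ATP cycles were run with NaOH stripping and re-annealing between them. The fluorescence ratio per cluster is summed target-cycle over summed buffer-cycle Cy3 intensity, averaged per switch-domain sequence. Clusters outside 100-1000 RFU were excluded.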

| Sequence | switch fluorescence ratio |
| --- | --- |
| AATAAGATTC | 0.964 |
| AATAAGGATC | 0.959 |
| AATAATGTGA | 0.998 |
| AATAATTCGC | 1.01 |
| AATAATTGAT | 1.05 |
| AATAATTGCC | 1.08 |
| AATACATCCC | 1.13 |
| AATACGAAGA | 1.03 |
| AATACGAATG | 0.992 |
| AATACGAGTG | 0.979 |
| AATACGCGAA | 1.26 |
| AATACGGAGC | 1.13 |
| AATACTGGAC | 1.24 |
| AATACTGGAG | 1.05 |
| AATAGAACGA | 1.03 |
| AATAGAAGGT | 0.998 |
| AATAGAAGTG | 1.02 |
| AATAGACTCG | 0.983 |
| AATAGCATG | 1.05 |
| AATAGGAGAC | 1.02 |
| AATAGGGATG | 1.04 |
| AATAGTCGGA | 0.959 |
| AATAGTGCTG | 1.02 |
| AATAGTTT | 0.946 |
| AATATAAGGT | 1.01 |
| AATATAATTT | 0.99 |

| Sequence | switch fluorescence ratio |
| --- | --- |
| AATATACCTG | 1.03 |
| AATATAGTCG | 0.938 |
| AATATCATGC | 0.974 |
| AATATCATTC | 1 |
| AATATTAGAC | 0.979 |
| AATATTATGT | 1.04 |
| AATATTCGGG | 0.997 |
| AATATTCTCG | 1 |
| AATCACTGTT | 1.04 |
| AATCAGGTTT | 1.04 |
| AATCATGGGA | 1.03 |
| AATCATTTGT | 1 |
| AATCCACTTC | 1.03 |
| AATCCCACAT | 1.02 |
| AATCCCTCTG | 1.1 |
| AATCCGAGCT | 1.13 |
| AATCCGGGCG | 1.01 |
| AATCCTGATC | 1.27 |
| AATCGATCGC | 0.963 |
| AATCGCAACA | 1.22 |
| AATCGCGAGT | 1.03 |
| AATCGGATCA | 1.03 |
| AATCGGGGAC | 0.957 |
| AATCGTGACA | 0.976 |
| AATCTAATAA | 0.986 |
| AATCTAGGCT | 0.986 |

| Sequence | switch fluorescence ratio |
| --- | --- |
| AATCTCCGAC | 1.7 |
| AATCTCCTAC | 1.08 |
| AATCTCTTAG | 0.956 |
| AATCTGA | 1.05 |
| AATCTGAACC | 1.03 |
| AATCTGGGT | 0.967 |
| AATCTGGGTC | 0.975 |
| AATCTTAGGC | 1.01 |
| AATCTTGCAG | 1.01 |
| AATCTTTGTC | 0.966 |
| AATGACCGCC | 1.18 |
| AATGCGAGAT | 1.01 |
| AATGCGCAAA | 1.49 |
| AATGCGCCA | 1.05 |
| AATGCGGCGC | 1.04 |
| AATGCTCAGC | 1.07 |
| AATGGAAAAA | 0.999 |
| AATGGACTGG | 1.05 |
| AATGGAGGTT | 0.963 |
| AATGGCTATG | 1.02 |
| AATGGCTGTA | 0.994 |
| AATGGCTTCT | 1 |
| AATGGGCCGT | 0.973 |
| AATGGGGAGG | 0.988 |
| AATGGTGGTG | 0.99 |
| AATGTAAGCT | 1.02 |

| Sequence | switch fluorescence ratio |
| --- | --- |
| AATGTACTGA | 1.08 |
| AATGTATCGC | 1.01 |
| AATGTATCTA | 0.997 |
| AATGTATGGT | 0.963 |
| AATGTATTCA | 1.01 |
| AATGTCATTG | 1 |
| AATGTCGGTT | 0.989 |
| AATGTGAGA | 1.01 |
| AATGTGATAT | 0.953 |
| AATGTGGACA | 1.01 |
| AATGTTCGTA | 0.983 |
| AATGTTGGTT | 0.948 |
| AATGTTTACC | 1.01 |
| AATGTTTTCG | 0.989 |
| AATGTTTTTC | 0.959 |
| AATTAAGGC | 1.03 |
| AATTAATAGA | 0.973 |
| AATTAATTGA | 0.97 |
| AATTACATAT | 1.01 |
| AATTAGGAAA | 1 |
| AATTAGTCGA | 1.02 |
| AATTATAAC | 0.989 |
| AATTCAAGCT | 1.02 |
| AATTCAGGG | 0.995 |
| AATTCATGAT | 1.04 |
| AATTCATGGA | 0.998 |

| Sequence | switch fluorescence ratio |
| --- | --- |
| AATTCCTTAG | 1.02 |
| AATTCGACAT | 1.01 |
| AATTCGCGCT | 1.21 |
| AATTCTCCTC | 1.05 |
| AATTCTCTGA | 1.01 |
| AATTGACAAA | 0.966 |
| AATTGAGAGA | 0.968 |
| AATTGCTAGG | 1.01 |
| AATTGCTTGG | 1.02 |
| AATTGGCCAA | 0.966 |
| AATTGGCCAG | 0.967 |
| AATTGGGGG | 0.976 |
| AATTGGTAAT | 0.967 |
| AATTGTTACT | 1.02 |
| AATTTAAGCT | 1.05 |
| AATTTAGTGT | 0.991 |
| AATTTCAGTT | 1.02 |
| AATTTCTACT | 1.01 |
| AATTTGAGTC | 1.02 |
| AATTTGTATA | 1 |
| AATTTTCTAA | 1.03 |
| AATTTTGAAA | 1.01 |
| AATTTTGACA | 1.04 |
| ACAAAAAGT | 0.984 |
| ACAAAAAGTC | 1.01 |
| ACAAAATCTC | 1.05 |

| Sequence | switch fluorescence ratio |
| --- | --- |
| ACAAACGCCG | 1.02 |
| ACAAACTAAT | 1.08 |
| ACAAACTAT | 1.15 |
| ACAAAGAACT | 1.03 |
| ACAAAGATGT | 1.02 |
| ACAAAGTTGT | 0.959 |
| ACAAATGTGG | 0.975 |
| ACAACGCCGG | 1.1 |
| ACAACTGCTT | 0.99 |
| ACAAGCTCTA | 1.03 |
| ACAAGGGCCC | 1.02 |
| ACAAGGTCTG | 0.982 |
| ACAAGTGGTT | 1.03 |
| ACAATAGGGA | 1.02 |
| ACAATAGTCG | 1.11 |
| ACAATATTT | 1.02 |
| ACAATCAAGG | 1.02 |
| ACAATTCGGG | 1.04 |
| ACAATTTGTC | 1.05 |
| ACACAAAAGG | 1 |
| ACACAAAT | 1.04 |
| ACACAACCAC | 1.3 |
| ACACAACTGA | 1.14 |
| ACACATCCTG | 1.03 |
| ACACCACGGG | 1.27 |
| ACACCAGCGC | 1.12 |

| Sequence | switch fluorescence ratio |
| --- | --- |
| ACACCAGTTC | 1.12 |
| ACACCATGAA | 1.02 |
| ACACCCATGA | 1.2 |
| ACACCCCCTT | 1.56 |
| ACACCCTTTT | 1.12 |
| ACACCTATAA | 1.03 |
| ACACGAGGCG | 1.04 |
| ACACGCGGCT | 1.15 |
| ACACGGACGC | 1.21 |
| ACACGGAGGG | 1.02 |
| ACACGGATGC | 1 |
| ACACGGGCAA | 0.871 |
| ACACGTGGGG | 1.06 |
| ACACTAACGC | 1.2 |
| ACACTATTCG | 1.04 |
| ACACTCTCAT | 0.984 |
| ACACTGGCGG | 1.06 |
| ACACTGGGGG | 0.993 |
| ACACTTATCA | 1.06 |
| ACACTTTTCT | 1.02 |
| ACAGACAGAC | 1.13 |
| ACAGACTTCA | 1.1 |
| ACAGCAGAGA | 1.04 |
| ACAGCATGCT | 0.992 |
| ACAGCCAGTT | 1.03 |
| ACAGCCCAT | 1.06 |

| Sequence | switch fluorescence ratio |
| --- | --- |
| ACAGCCCCAT | 1 |
| ACAGCGCATG | 1.02 |
| ACAGCTAAGT | 1.06 |
| ACAGCTAGGC | 1.1 |
| ACAGCTGTCT | 0.999 |
| ACAGGACATT | 1.06 |
| ACAGGCAGTT | 0.993 |
| ACAGGGGCTT | 1.12 |
| ACAGGGTATT | 1.03 |
| ACAGGTACGA | 1.06 |
| ACAGGTCAT | 0.997 |
| ACAGTAACGA | 1.08 |
| ACAGTAATCC | 1.15 |
| ACAGTAGGT | 1.09 |
| ACAGTCGTAT | 1 |
| ACAGTCTAGT | 1.02 |
| ACAGTGCGAG | 1.03 |
| ACAGTGCTTG | 1.03 |
| ACAGTTATAC | 1.29 |
